Whole data set: some 33,000 sequences, median “E-score (-0.5 to 0.5)” near -0.032, cut for the highest 2% near 0.36. Some of the results follow.
Molecular target: T1, Sko1 (UniProt Q02100)
T1 sequence: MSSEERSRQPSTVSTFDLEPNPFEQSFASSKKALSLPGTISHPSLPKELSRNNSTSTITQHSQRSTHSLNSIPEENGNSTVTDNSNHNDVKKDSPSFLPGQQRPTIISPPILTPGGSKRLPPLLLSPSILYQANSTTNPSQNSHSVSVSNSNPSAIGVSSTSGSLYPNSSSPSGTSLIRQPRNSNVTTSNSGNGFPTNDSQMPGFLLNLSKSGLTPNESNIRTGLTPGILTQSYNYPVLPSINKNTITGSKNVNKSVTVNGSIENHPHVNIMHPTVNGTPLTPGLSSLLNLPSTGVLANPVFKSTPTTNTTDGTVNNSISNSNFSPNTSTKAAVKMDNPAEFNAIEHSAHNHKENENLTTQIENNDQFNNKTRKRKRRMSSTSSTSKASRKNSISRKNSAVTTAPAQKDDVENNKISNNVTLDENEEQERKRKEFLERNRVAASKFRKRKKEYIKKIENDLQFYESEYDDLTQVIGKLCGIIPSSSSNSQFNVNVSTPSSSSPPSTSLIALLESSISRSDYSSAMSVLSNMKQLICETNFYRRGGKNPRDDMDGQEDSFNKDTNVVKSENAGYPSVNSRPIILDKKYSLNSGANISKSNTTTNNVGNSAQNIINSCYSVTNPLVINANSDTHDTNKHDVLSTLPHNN
Assay: PBM E-score (8-mer binding enrichment) (E-score (-0.5 to 0.5)); higher = stronger / more preferred TF binding; most listed sequences are background and not binding sites
Conditions: protein concentration: 200 nM; construct: GST-full length
Method: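 Universal 'all 10-mer' protein binding microarrays (Agilent AMADID 015681) probed with GST-tagged S. cerevisiae TFs (full-length or DBD) made by in vitro transcription/translation (PURExpress), about 100-200 nM. Bound TF was detected with fluorescent anti-GST. Each ungapped 8-mer (which stands for itself and its reverse complement) is scored by the PBM enrichment score (E-score), a modified Wilcoxon-Mann-Whitney statistic from -0.5 to +0.5, computed with the Universal PBM Analysis Suite. Scale: above 0.35 generally sequence-specific binding.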

Sequence | PBM E-score
GCTTCGAC | -0.204
ACGTAGGG | 0.425
GAGGATCA | -0.062
CGAGCAGC | -0.039
AGATGGAA | -0.109
AATTTAGT | 0.097
TGCGGCCA | -0.158
GTGGTTGA | 0.0985
CCAAATGG | -0.0542
AAGGCGTA | 0.128
CGGTTCGC | -0.131
CCTAGGTA | -0.054
AGGCTCAG | -0.0655
GGCGGAAA | -0.0247
ATACCCCC | -0.264
CGGGAAAC | -0.122
ACCATGGT | -0.16
CGGTCGTC | -0.109
CCCCTTTA | -0.112
ACTCTGAG | -0.273
GAGAACCA | -0.127
CCCCCACC | -0.46
ATACTCTC | -0.00604
CACGGGAA | -0.167
CCCAGACG | -0.0835

Sequence | PBM E-score
ATCTCTTG | -0.21
CTCCCATA | -0.269
GCTACGCC | -0.167
GAGGGAAA | -0.118
AGGGCACT | -0.164
CCGTAACC | -0.0904
ATTGCAGA | 0.0455
CACCCTGG | -0.259
ACAGCCAC | -0.0572
CCTCATGC | -0.142
ATCGTCCG | 0.0463
AAATTCAT | 0.205
ACTTCATG | -0.0433
CACCCGTA | -0.158
CCGCGAAC | -0.223
AACAGTTA | -0.118
AGAGGAGC | -0.186
ACGCGCCG | -0.0415
AATCCATG | 0.0618
GGACCACA | -0.223
CGTTTTAG | 0.0401
ACGAAGTA | 0.135
AAAGTGTT | 0.0977
GCTCAGGA | -0.0979
GGACTGTA | -0.0526

Sequence | PBM E-score
CGGCAAAC | -0.0152
ACATCGCT | -0.0491
ACTCGGGG | -0.227
AGGTTCCA | -0.0877
AGGCAGAT | -0.193
AATGCGGT | -0.293
CCTCCAGA | -0.144
ATCATTGG | 0.217
CATCCCTC | -0.245
TAATTAAA | 0.2
GGAGTCCA | -0.134
TAAATGCA | 0.131
AGTCAGAG | -0.142
TAATCGCA | 0.116
AAGAGAAG | 0.0141
AGCGTTGC | -0.0415
CAACGGCG | -0.201
AGTGTTGC | 0.206
ACTCCGCC | -0.311
ACTCACCC | -0.239
TAGAACGA | 0.0498
ACGACAGG | 0.11
AGGTTCGC | -0.202
AATATGTA | 0.245
TGAACGAA | 0.00411

Sequence | PBM E-score
CAAGTGAA | 0.0584
ATACACCC | -0.118
AAGCTTAC | 0.149
TCGGTGAA | -0.00999
TAACATGA | 0.127
CGCCCTGC | -0.236
GAGGGAGA | -0.319
AAAACCTC | 0.00859
CAGTGCTC | -0.122
ATTAAGCA | 0.0526
ACTGTGCA | 0.0441
CGAGGTTA | -0.0761
CCTTTTTA | 0.0841
TGAGGCCA | -0.029
CGTAAATC | 0.313
AGCCTACG | 0.299
CATTGGAC | -0.0939
AAGCGTAC | 0.0273
AATCTATA | 0.311
ATAGGATG | -0.0288
CGGGGTGA | -0.178
AGCGAGGC | -0.129
CACGTACA | 0.389
AGTCCGCC | -0.177
ATAGTAAG | 0.042

Sequence | PBM E-score
GACTTCGA | 0.0321
GCGAGTTA | 0.139
CAGCTTCG | -0.0585
GATTTAGA | 0.106
CGCAACCG | 0.0625
AAATGAAG | -0.0747
ACAAACCA | -0.0895
AACGCGCA | 0.21
ACTGCTGA | -0.0762
AGAATAAG | 0.0855
CCTGTAGA | -0.114
GCCATCTA | -0.0869
AGATCAAA | 0.0161
ATACCCTG | -0.139
CTGAGTAA | 0.046
ATAATAAC | 0.107
ACTCCACG | 0.0133
CTAAGCCA | -0.138
AAAAAATT | 0.143
AGTCCCAG | -0.195
GGGCCGCA | -0.304
CCGTTAAC | -0.0852
CTCCTTGA | -0.159
AGTTGGAC | 0.0514
ACGAGTAT | 0.114

Sequence | PBM E-score
ACCAAGCT | 0.0443
GGCAATCA | -0.071
CATGTTGG | -0.0925
CACCAGGG | -0.316
AAACGGAA | 0.133
GCGGAGGA | -0.277
CCTATGGA | -0.21
ACGCGTGG | 0.106
CCAGACGC | -0.155
CAACTAAC | 0.122
CCTGGTGC | -0.204
TGCCCAAA | -0.262
AACCTAAC | 0.0881
AAGGTGGG | -0.384
GGCATTTA | -0.0199
CCAGATAA | -0.0248
ACCCTGCG | 0.07
AAGTGCCT | -0.219
AGCACTAC | -0.0579
ATGAGCTG | -0.0587
ATGTGTAC | 0.128
ATAGCGCC | -0.105
CAAGCAGA | -0.0379
CAACCGGC | -0.283
ATTAGCTA | 0.131

Sequence | PBM E-score
ATTCGCCC | -0.184
AGGCTTTG | -0.246
CCGTGACA | -0.14
CGGGTGGC | -0.283
GATCTGTA | -0.0458
AGGTCATG | 0.0635
GTATCTGA | 0.144
AGGTCAGA | -0.147
TTAGTCAA | 0.0708
ATGCTCGG | -0.109
CTCCCGGC | -0.278
AAGTGGAT | -0.11
AAACGTCT | 0.341
CGTTGTCA | 0.163
CCGAGGCC | -0.349
ATACTTCC | -0.161
CAACTGTC | -0.0925
GAATACTC | -0.0176
ATACGAGA | 0.113
ACGTGGGG | 0.316
GACTGGGC | -0.262
GTCGATGA | 0.1

— the supplement of paper PMC3334620
